PubChem BioAssay AID485297 (National Center for Advancing Translational Sciences (NCATS), 2010)
Where “and” joins values, the source holds several entries; their conditions need not be identical. Equal entries are not always repeated. The whole screen tested about 320,000 compounds, of which about 9,100 (2.8%) were called active. Inconclusive means that the source gave no clear call. Such entries were picked first, then a sample of the others. Calls follow the shape of the dose curve; as a rule, active = well fitted activation curve with a large enough effect; inconclusive = small, poorly fitted or top-dose-only effect; inactive = no such curve, though single readings can be large or run the other way. Potencies beside an inconclusive call are fits to weak or partial responses and may not hold up.

experiment: qHTS Assay for Rab9 Promoter Activators; conditions: Huh7 Rab9 promoter-luciferase reporter, luminescence, 24 h; series mostly up to 9.22 µM; also: nearly all actives have a fitted effect of over 60% in size
Method in brief: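 Rab9 promoter-driven luciferase in stably transfected Huh7 cells; 1500 cells/well rested 2 h, exposed to compound in DMSO for 24 h at 37 °C, 5% CO2. Luminescence read 10 min after adding luciferase reagent at ambient temperature.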
Potency is read from the fitted curve at half-maximal effect; tags tell the direction and shape of the fitted curve.

| Compound | Potency |
| --- | --- |
| COc1ccccc1/C=N\Nc1ccccc1[N+](=O)[O-] | active: 2 µM |
| O=C(O)c1ccc(Nc2cnc3ccccc3n2)cc1 | active: 2.82 µM |
| CCc1ccc(C(=O)CSc2n[nH]c(C)n2)cc1 | inconclusive: 6.31 µM [activator, single point] |
| O=C(CNC(=O)c1ccc([N+](=O)[O-])cc1)c1ccccc1 | inconclusive: 2.24 µM [activator, partial curve] |
| COc1cccc(-c2nc3cc(C)ccc3o2)c1 | active: 3.98 µM |
| O=C(NC(=S)Nc1cc([N+](=O)[O-])ccc1Cl)c1ccccc1 | inconclusive: 3.16 µM [activator, single point] |
| CCN(CC)C(=O)CCCOc1ccc(Cl)cc1Cl | inconclusive: 3.16 µM [activator, partial curve] |
| COc1ccc(C(=O)Nc2ccc(C)cn2)c(OC)c1 | active: 0.355 µM |
| COc1cccc(C(=O)Oc2ccccc2/C=C\C(=O)c2cc3ccccc3o2)c1 | inconclusive: 5.62 µM [activator, single point] |
| OC[C@H]1O[C@@H](n2cnc3c(Nc4ccccc4)ncnc32)[C@H](O)[C@@H]1O | inconclusive: 3.55 µM [activator, single point] and inconclusive: 13 µM [activator, partial curve] |
| C/C(=C\c1ccc(C(=O)O)cc1)c1ccc2c(c1)C(C)(C)CCC2(C)C | inconclusive: 8.91 µM [activator, partial curve] |
| CC1CCCN(c2ccc(C(=O)NCc3cccs3)cn2)C1 (stereo not drawn) | inconclusive: 4.47 µM [activator, single point] |
| N=c1oc2c3c4c(cc2cc1C(=O)Nc1ccccc1)CCCN4CCC3 | inconclusive: 2.51 µM [activator, single point] |
| N=c1n(N)c2ccccc2n1CC(=O)c1ccc(Br)cc1 | inconclusive: 5.62 µM [activator, single point] |
| Cc1[nH]c2ccc(-c3nnc(SCC(=O)c4ccc(F)cc4)o3)cc2c1C | inactive |
| Cc1cc(Cl)c2oc(C(=O)N(C)C(C)c3ccccn3)c(C)c2c1 (stereo not drawn) | inconclusive: 5.62 µM [activator, single point] |
| Clc1ccccc1OCCCOc1cccc2cccnc12 | inconclusive: 3.16 µM [activator, single point] |
| CCOc1cc(/C=N/NC(=O)c2nn(C)cc2Br)ccc1OCc1ccccc1 | inactive |
| O=C(Nc1nnc(CCc2ccccc2)s1)c1cccs1 | inconclusive: 5.62 µM [activator, single point] |
| CCN1CCN(c2ccc(S(=O)(=O)N3CCCCC3)cc2NC(=O)Cc2ccc(Cl)c(Cl)c2)CC1 | inactive |
| COc1cccc(-c2nnn(CC(C)=O)n2)c1 | active: 2.51 µM |
| COc1ccc(/C=C/C(=O)NC(=S)Nc2ccccn2)cc1 | active: 0.891 µM |
| CCCCNC(=O)C1CCN(Cc2ccc(OCc3ccccc3)cc2)CC1 | inconclusive: 3.55 µM [activator, partial curve] |
| CCCCOC(=O)Nc1ccc(N2CCCCC2)cc1 | active: 3.16 µM |

| Compound | Potency |
| --- | --- |
| C=CCn1c(SCC(=O)Nc2sccc2C(N)=O)nc2ccccc2c1=O | inactive |
| O=C(Nc1ccccc1)Nc1csc2ccccc12 | inconclusive: 5.62 µM [activator, single point] |
| CSc1cccc(NS(=O)(=O)c2ccc(C(C)=O)cc2)c1 | inactive |
| O=[N+]([O-])c1ccc(Cl)c(-c2ccc(/C=N/c3c(-c4ccco4)nc4ccccn34)o2)c1 | inconclusive: 6.31 µM [activator, single point] |
| COCCn1c(=NC(=O)c2ccc(S(=O)(=O)N3CCc4ccccc4C3)cc2)sc2cc(OC)ccc21 | inactive |
| COC(=O)c1ccc(NC(=O)C(=O)c2c[nH]c3ccccc23)cc1 | inconclusive: 5.62 µM [activator, single point] |
| O=C(COc1ccccc1[N+](=O)[O-])Nc1cccnc1 | inconclusive: 3.16 µM [activator, single point] |
| Cc1ccc2c(C)c(C(=O)N3CCN(Cc4ccc5c(c4)OCO5)CC3)oc2c1C | inconclusive: 2.82 µM [activator, partial curve] |
| CCOC(=O)c1ccc(NC(=O)N(CC)CC)cc1 | active: 2.51 µM |
| CC(C(=O)NCCC1=CCCCC1)c1ccc([N+](=O)[O-])cc1 (stereo not drawn) | inactive |
| COc1ccccc1OCc1cc(C(=O)N2CCN(C)C(c3ccccc3)C2)no1 (stereo not drawn) | active: 2 µM |
| O=C(CN1C(=O)C2CC=CCC2C1=O)Nc1nnc(SCc2c(Cl)cccc2Cl)s1 (stereo not drawn) | inconclusive: 1.26 µM [activator, single point] |
| Cc1ccc(C(=O)CSc2nnc(-c3ccco3)n2Cc2ccccc2)cc1 | inconclusive: 1.41 µM [activator, partial curve] |
| CCCCc1c(C)nc2cc(-c3ccco3)[nH]n2c1=O | inconclusive: 3.55 µM [activator, partial curve] |
| O=C(Nc1ccc2nc(-c3ccco3)[nH]c2c1)c1cccs1 | active: 3.16 µM |
| CCCCC(=O)Nc1ccc(Br)cn1 | inconclusive: 3.16 µM [activator, partial curve, poor fit] |
| CC1(/[N+]([O-])=C\c2ccccc2F)CCCCC1=O (stereo not drawn) | inactive |
| O=c1nc2sc3ccccc3n2c(=O)n1-c1ccc(Cl)cc1 | active: 2.82 µM |
| COc1ccc(C(=O)Nc2ccc3oc(-c4cccnc4)nc3c2)cc1OC | inactive |
| Cc1ccccc1NC(=O)c1ccccc1NC(=O)c1cccs1 | inactive |
| CN(C)c1nc(N)nc(-c2nc3ccccc3s2)n1 | inconclusive: 6.31 µM [activator, single point] |
| Cc1ccc(-c2cc(C(=O)O)n(-c3ccc(S(N)(=O)=O)cc3)n2)cc1 | inactive |
| COc1ccc(/C=C2\SC(=S)N(CCC(=O)Nc3ccc(C(=O)O)cc3)C2=O)cc1OC | inactive |
| COc1cc(OC)cc(C(=O)Oc2ccc(/C=N/Nc3nc4ccccc4s3)cc2OC)c1 | inconclusive: 4.47 µM [activator, single point] |
